# Assay results taken from the supplement of paper PMC8728848.
# Some of the results follow.
# Assays:
# Assay in all cases: glycan array binding signal (z-score within array); higher = stronger binding
# Conditions in all cases: glycan notation: IUPAC condensed, linker removed
# [1] = biological target: Fuc(a1-2)Gal
# In short: (§1)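 The binding signal is a Z-score computed within each array. Data were drawn from 3228 arrays in the Consortium for Functional Glycomics database, restricted to those with a known protein sequence. Scores were averaged over arrays of the same protein sequence at different concentrations or buffers, and over linkers, and negative values can be taken as non-binding.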
# [2] = biological target: Fuc(a1-2)Gal(b1-3)GalNAc
# In short: as §1
# [3] = biological target: Fuc(a1-2)Gal(b1-3)GalNAc(b1-3)Gal
# In short: as §1
# [4] = biological target: Fuc(a1-2)Gal(b1-3)GalNAc(b1-3)Gal(a1-4)Gal(b1-4)Glc
# In short: as §1
# [5] = biological target: Fuc(a1-2)Gal(b1-3)GalNAc(b1-4)[Neu5Ac(a2-3)]Gal(b1-4)Glc
# In short: as §1
# [6] = biological target: Fuc(a1-2)Gal(b1-3)GlcNAc
# In short: as §1
# [7] = biological target: Fuc(a1-2)Gal(b1-3)GlcNAc(b1-3)Gal(b1-4)Glc
# In short: as §1
# [8] = biological target: Fuc(a1-2)Gal(b1-3)[Fuc(a1-4)]GlcNAc
# In short: as §1
# [9] = biological target: Fuc(a1-2)Gal(b1-4)Glc
# In short: as §1
# [10] = biological target: Fuc(a1-2)Gal(b1-4)GlcNAc
# In short: as §1
# [11] = biological target: Fuc(a1-2)Gal(b1-4)GlcNAc(b1-3)Gal(b1-4)GlcNAc
# In short: as §1
# [12] = biological target: Fuc(a1-2)Gal(b1-4)GlcNAc(b1-3)Gal(b1-4)GlcNAc(b1-3)Gal(b1-4)GlcNAc
# In short: as §1
# [13] = biological target: Fuc(a1-2)Gal(b1-4)[Fuc(a1-3)]GlcNAc
# In short: as §1
# [14] = biological target: Fuc(a1-2)Gal(b1-4)[Fuc(a1-3)]GlcNAc(b1-3)Gal(b1-4)[Fuc(a1-3)]GlcNAc
# In short: as §1
# [15] = biological target: Fuc(a1-2)Gal(b1-4)[Fuc(a1-3)]GlcNAc(b1-3)Gal(b1-4)[Fuc(a1-3)]GlcNAc(b1-3)Gal(b1-4)[Fuc(a1-3)]GlcNAc
# In short: as §1
# [16] = biological target: Fuc(a1-2)GlcNAc
# In short: as §1
# [17] = biological target: Fuc(a1-2)[Gal(a1-3)]Gal
# In short: as §1
# [18] = biological target: Fuc(a1-2)[Gal(a1-3)]Gal(b1-3)GlcNAc
# In short: as §1
# [19] = biological target: Fuc(a1-2)[Gal(a1-3)]Gal(b1-4)Glc
# In short: as §1
# [20] = biological target: Fuc(a1-2)[Gal(a1-3)]Gal(b1-4)GlcNAc
# In short: as §1
# [21] = biological target: Fuc(a1-2)[Gal(a1-3)]Gal(b1-4)[Fuc(a1-3)]GlcNAc
# In short: as §1
# [22] = biological target: Fuc(a1-2)[Gal(a1-4)]Gal(b1-4)GlcNAc
# In short: as §1
# [23] = biological target: Fuc(a1-2)[GalNAc(a1-3)]Gal
# In short: as §1
# [24] = biological target: Fuc(a1-2)[GalNAc(a1-3)]Gal(b1-3)GlcNAc
# In short: as §1
# [25] = biological target: Fuc(a1-2)[GalNAc(a1-3)]Gal(b1-4)Glc
# In short: as §1
# [26] = biological target: Fuc(a1-2)[GalNAc(a1-3)]Gal(b1-4)GlcNAc
# In short: as §1
# [27] = biological target: Fuc(a1-2)[GalNAc(a1-3)]Gal(b1-4)[Fuc(a1-3)]GlcNAc
# In short: as §1
# [28] = biological target: Fuc(a1-2)[GalNAc(a1-4)]Gal(b1-4)GlcNAc
# In short: as §1
# [29] = biological target: Fuc(a1-2)[GalNAc(b1-3)]Gal
# In short: as §1
# [30] = biological target: Fuc(a1-3)GlcNAc
# In short: as §1
# [31] = biological target: Fuc(a1-3)[Gal(b1-4)]GlcNAc
# In short: as §1
# [32] = biological target: Fuc(a1-3)[Gal(b1-4)]GlcNAc(b1-4)Gal(b1-4)[Fuc(a1-3)]GlcNAc
# In short: as §1
# [33] = biological target: Fuc(a1-3)[Gal(b1-4)]GlcNAc(b1-4)Gal(b1-4)[Fuc(a1-3)]GlcNAc(b1-4)Gal(b1-4)[Fuc(a1-3)]GlcNAc
# In short: as §1
# [34] = biological target: Fuc(a1-3)[Gal3S(b1-4)]GlcNAc
# In short: as §1
# [35] = biological target: Fuc(a1-3)[GalNAc(b1-4)]GlcNAc
# In short: as §1
# [36] = biological target: Fuc(a1-4)GlcNAc
# In short: as §1
# [37] = biological target: Fuc(b1-3)GlcNAc
# In short: as §1
# [38] = biological target: Gal(a1-2)Gal
# In short: as §1
# [39] = biological target: Gal(a1-3)Gal
# In short: as §1
# [40] = biological target: Gal(a1-3)Gal(b1-3)GlcNAc
# In short: as §1
# [41] = biological target: Gal(a1-3)Gal(b1-4)Glc
# In short: as §1
# [42] = biological target: Gal(a1-3)Gal(b1-4)GlcNAc
# In short: as §1
# [43] = biological target: Gal(a1-3)Gal(b1-4)[Fuc(a1-3)]GlcNAc
# In short: as §1
# [44] = biological target: Gal(a1-3)GalNAc
# In short: as §1
# [45] = biological target: Gal(a1-3)[Gal(a1-4)]Gal(b1-4)GlcNAc
# In short: as §1
binder,measurement,setting,value
PA-IL (Pseudomonas aeruginosa) (protein) AWKGEVLANNEAGQVTSIIYNPGDVITIVAAGWASYGPTQKWGPQGDREHPDQGLICHDAFCGALVMKIGNSGTIPVNTGLFRWVAPNNVQGAITLIYNDVPGTYGNNSGSFSVNIGKDQS,glycan array binding signal (z-score),[1],-0.365
same,glycan array binding signal (z-score),[2],-0.364
same,glycan array binding signal (z-score),[3],-0.321
same,glycan array binding signal (z-score),[4],-0.104
same,glycan array binding signal (z-score),[5],-0.365
same,glycan array binding signal (z-score),[6],-0.365
same,glycan array binding signal (z-score),[7],-0.365
same,glycan array binding signal (z-score),[8],-0.365
same,glycan array binding signal (z-score),[9],-0.362
same,glycan array binding signal (z-score),[10],-0.364
same,glycan array binding signal (z-score),[11],-0.365
same,glycan array binding signal (z-score),[12],-0.362
same,glycan array binding signal (z-score),[13],-0.362
same,glycan array binding signal (z-score),[14],-0.364
same,glycan array binding signal (z-score),[15],-0.364
same,glycan array binding signal (z-score),[16],-0.365
same,glycan array binding signal (z-score),[17],2.09
same,glycan array binding signal (z-score),[18],2.19
same,glycan array binding signal (z-score),[19],1.99
same,glycan array binding signal (z-score),[20],3.03
same,glycan array binding signal (z-score),[21],2.42
same,glycan array binding signal (z-score),[22],3.69
same,glycan array binding signal (z-score),[23],0.056
same,glycan array binding signal (z-score),[24],-0.11
same,glycan array binding signal (z-score),[25],0.183
same,glycan array binding signal (z-score),[26],0.174
same,glycan array binding signal (z-score),[27],0.183
same,glycan array binding signal (z-score),[28],2.66
same,glycan array binding signal (z-score),[29],-0.363
same,glycan array binding signal (z-score),[30],-0.363
same,glycan array binding signal (z-score),[31],-0.363
same,glycan array binding signal (z-score),[32],-0.365
same,glycan array binding signal (z-score),[33],-0.363
same,glycan array binding signal (z-score),[34],-0.365
same,glycan array binding signal (z-score),[35],-0.365
same,glycan array binding signal (z-score),[36],-0.364
same,glycan array binding signal (z-score),[37],-0.365
same,glycan array binding signal (z-score),[38],4.77
same,glycan array binding signal (z-score),[39],2.81
same,glycan array binding signal (z-score),[40],2.7
same,glycan array binding signal (z-score),[41],3.73
same,glycan array binding signal (z-score),[42],3.65
same,glycan array binding signal (z-score),[43],4.11
same,glycan array binding signal (z-score),[44],3.41
same,glycan array binding signal (z-score),[45],3.92
